Reference: PubChem BioAssay (NCI)
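Cultured in 96-well plates, cells were exposed to test compound for 48 hours across five concentrations. GI50 marks 50% less growth. TGI is the concentration that stops growth completely.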

Tested on: NCI-H322M lung
Test: NCI tumour cell line growth inhibition, 48 h

SMILES: C=C(C)[C@@H]1CC[C@]2(COCCCNCCCN)CC[C@]3(C)[C@H](CC[C@@H]4[C@@]5(C)CC[C@H](O)C(C)(C)[C@@H]5CC[C@]43C)[C@@H]12
- GI50: 1.68 µM
- TGI: 3.09 µM
